# Source: PubChem BioAssay AID1508642 (National Center for Advancing Translational Sciences (NCATS), 2021)
# Hit rate of the full screen: of about 43,000 compounds, about 200 (0.47%) were called active. Another 12% or so got no clear call; they are omitted. Calls follow the shape of the dose curve; as a rule, active = well fitted cell-killing curve with a large enough effect; inconclusive = small, poorly fitted or top-dose-only effect, or effect the other way; inactive = flat fitted curve, though single readings scatter. The list shows a part of the results.
# Assay: Cell viability qHTS assay in S16 Pmp22-F2sN cells; also: nearly all actives have a fitted effect of over 65% in size
# Details: S16 Pmp22-F2sN Schwann cells (luciferase reporters placed in the Pmp22 gene) viability, CellTiter-Glo, 24 h; series mostly up to 57.5 µM; activity change, negative = cytotoxicity: at the top concentration
# Procedure, shortened: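 Rat S16 Schwann reporter line, 24 h treatment with library compounds delivered at 23 nL per well. Cell viability by CellTiter-Glo luminescence.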
# % is scaled to controls: 0 for no effect and ±100 for the full control effect.
row,Structure (SMILES),"activity change, negative = cytotoxicity"
1,CCCCN(CCCC)CCNC(=O)c1cn(CC)c2ccc(S(=O)(=O)N(C)C3CCCCC3)cc2c1=O,inactive: -7.27%
2,CCOc1ccc(NC(=O)Cn2c(=O)n(-c3cccc(OC)c3)c(=O)c3c4c(sc32)CCCC4)cc1,inactive: 8.66%
3,O=C(CCS(=O)(=O)c1cccs1)Nc1ccc(C(=O)Nc2ccccc2F)cc1,inactive: 6.06%
4,Cc1cc2c(cc1S(=O)(=O)N1CCCCC1)OCC(=O)N2,inactive: -5.34%
5,Cc1ccccc1NC(=O)CSc1nc2c(c(=O)n(C)c(=O)n2C)n1Cc1ccccc1F,inactive: 13.7%
6,COCCNC(=O)Cn1c(=O)n(CCCCCC(=O)NCc2ccc3c(c2)OCO3)c(=O)c2sccc21,inactive: 0.527%
7,CC(=O)N1CCc2c(sc3c2c(=O)n(CCc2ccccc2)c(=O)n3Cc2ccc(Cl)cc2)C1,inactive: -14.5%
8,CCOC(=O)C1CCN(C(=O)Cn2c(=O)oc3cc(S(=O)(=O)N4CCC(C)CC4)ccc32)CC1,inactive: -0.485%
9,CCOC(=O)Cn1c(=O)n(-c2ccccc2OC)c2nc(-c3cccc(F)c3)nc(C(N)=O)c21,inactive: 17.2%
10,Cc1ccc(-c2nnc(SCc3cccc(C#N)c3)o2)cc1,inactive: 12.9%
11,CCOC(=O)c1ccccc1NC(=O)N(C(C)C)C1CCN(C(C)=O)CC1,inactive: -0.745%
12,COc1ccc(-c2nc(CN3CCC(C(=O)NCc4ccccc4)CC3)c(C)o2)cc1OC,inactive: 15.9%
13,Cn1nnc2c(N3CCN(c4ccccc4Cl)CC3)ncnc21,inactive: -1.48%
14,CC(C)(C)c1ccc(-c2nc(SCCCOc3ccccc3)n3[nH]c(=O)cc3n2)cc1,inactive: -13.1%
15,CCCCc1ccc(NC(=O)c2ccc(=O)n(Cc3cccc(C)c3)c2)cc1,inactive: -29.4%
16,Cc1ccc2c(c1)-c1c(cnc3cc(-c4ccccc4)nn13)CO2,inactive: 15.7%
17,COc1ccc(-c2nc(C)c(CCNS(=O)(=O)c3cc(C)c(C)cc3C)s2)cc1,inactive: 17.6%
18,O=C(NCCc1ccccc1)c1nnc(Cc2cccc(F)c2)o1,inactive: -18.3%
19,CN(C)CCNC(=O)c1ccc2c(=O)n3c(nc2c1)CCCCC3,inactive: -0.827%
20,CCOC(=O)c1cccnc1SCC(=O)Nc1ccc(C)cc1C,inactive: -6.19%
21,CCC(C)NC(=O)c1ccc2c(c1)N(Cc1ccccc1)C(=O)c1ccccc1S2 (configuration not stated),inactive: 9.78%

row,Structure (SMILES),"activity change, negative = cytotoxicity"
1,COc1cccc(N2CCN(C(=O)CCc3c(C)nc4c(c3C)c(=O)n(C)c(=O)n4C)CC2)c1,inactive: 16.3%
2,CCOc1ccc(CNC(=O)C2CCCN(S(=O)(=O)c3ccc4c(ccn4C)c3)C2)cc1 (configuration not stated),inactive: -21.3%
3,CC(C)Oc1ccc(CNC(=O)c2cc3ccccn3n2)cc1,inactive: -10.5%
4,Cc1ccc(CCNC(=O)CCCn2nc(C)c3c(C)n(-c4ccccc4)nc3c2=O)cc1,inactive: 13.1%
5,COc1cccc(-c2cc(C(=O)Nc3cc(Cl)ccc3O)on2)c1,inactive: -10.4%
6,Cc1ccc(-n2nnnc2CNC(=O)C(C)(C)C)cc1C,inactive: -0.869%
7,Cc1nc(SC(C)C(=O)Nc2ccccc2C)cc(-c2ccccc2)n1 (configuration not stated),inactive: -8.11%
8,Cc1ccc(NC(=O)CN(C)S(=O)(=O)c2ccc3c(c2)n(C)c(=O)c(=O)n3C)cc1C,inactive: -0.0494%
9,Cc1ccc(-c2nc3c4ccccc4n(CC(=O)N4CCN(c5ccccc5F)CC4)c(=O)n3n2)cc1,inactive: -2.34%
10,CCn1c2ccccc2c2nnc(SCC(=O)O)nc21,inactive: 0.138%
11,Cc1ccccc1C(=O)c1cccn1CC(=O)NCc1ccccc1,inactive: -0.296%
12,CCOc1ccc(CCNC(=O)Cn2nc(C)n3c(cc4occc43)c2=O)cc1OCC,inactive: 0.0431%
13,Cc1ccc(C)c(NC(=O)CN2C(=O)CCc3ccccc32)c1,inactive: 12.1%
14,Cc1ccc(S(=O)(=O)N(CC(O)Cn2c3ccccc3c3ccccc32)c2cccc(C(N)=O)c2)cc1 (configuration not stated),inactive: -12.8%
15,CCc1ccc(NC(=O)c2ccc3c(O)c(S(=O)(=O)c4ccc(Cl)cc4)c(=O)[nH]c3c2)cc1,inactive: -3.58%
16,Cc1cccc(OC(C)C(=O)Nc2ncn[nH]2)c1 (configuration not stated),inactive: 6.94%
17,CCCCN(CC)CCCNC(=O)c1sc2nc(C)cc(C)c2c1-n1cccc1,inactive: -2.43%
18,COc1ccc(CN(C(=O)COc2ccccc2OC)C2CCS(=O)(=O)C2)cc1 (configuration not stated),inactive: 12.2%
19,CCOC(=O)C1CCCN(S(=O)(=O)c2ccc(F)c(C(=O)Nc3ccc(F)c(F)c3)c2)C1 (configuration not stated),inactive: -12.5%
20,Cc1cccc2nc(-c3ccco3)c(Nc3ccc4c(c3)OCO4)n12,inactive: -0.291%
21,CCN(CC)c1cc(C)c2cc(NC(=O)c3cccc(OC)c3)ccc2n1,inactive: -3.67%

row,Structure (SMILES),"activity change, negative = cytotoxicity"
1,CCOC(=O)c1c(NC(=O)/C=C/c2ccc(OCC)cc2)sc(C)c1C,inactive: 8.53%
2,COC(=O)C(NC(=O)CC(C)C)(Nc1nc2c(s1)CCCC2)C(F)(F)F (configuration not stated),inactive: -1.44%
3,Cc1cc(C)c(NC(=O)Cn2c(=O)n(CC(=O)NCc3ccccc3Cl)c(=O)c3sccc32)c(C)c1,inactive: -7.85%
4,CC(=O)c1cc2c(cc1N/C(=N/S(=O)(=O)c1ccc(C)cc1)c1ccccc1)OCO2,inactive: -5.69%
5,COC(=O)c1ccc(NC(=O)CCS(=O)(=O)c2ccc(Br)cc2)cc1,inactive: -11.5%
6,COc1ccc(-c2cc(C(=O)O)n(Cc3ccccc3)n2)cc1,inactive: 4%
7,COc1ccc(C(=O)NC2(C(F)(F)F)C(=O)NC(C)=C2C#N)cc1OC (configuration not stated),inactive: 3.65%
8,CCC(=O)N1CCc2cc(Br)cc(S(=O)(=O)N3CCC(C(=O)Nc4ccc(OC)cc4)CC3)c21,inactive: -2.2%
9,O=C(CSc1nc2ccccc2nc1Cc1ccccc1)NCc1ccccc1Cl,inactive: -7.59%
10,CCc1cnc2c(c1SCC(=O)N1CCCCC1)c(=O)n(C)c(=O)n2C,inactive: 1.66%
11,CCCCOc1ccc(C(=O)NCCS(=O)(=O)N2CCN(c3ccc(F)cc3)CC2)cc1,inactive: -0.0441%
12,CC1CCCN(CCCNC(=O)c2ccc3c(c2)N(Cc2ccccc2F)C(=O)c2ccccc2S3(=O)=O)C1 (configuration not stated),inactive: -4.88%
13,CCc1ccccc1NC(=O)Nc1c[nH]c(=O)[nH]c1=O,inactive: 4.35%
14,COc1cc(C(=O)Oc2c(Sc3ccccc3)c(C)nn2-c2ccccc2)cc(OC)c1OC,inactive: 2.72%
15,Cc1ccc(/C=C/c2onc(C)c2S(=O)(=O)N2CCC(C(=O)Nc3ccc(C)c(N(C)C)c3)CC2)cc1,inactive: 10.7%
16,Cc1ccc(CNC(=O)CCCCCn2c(=O)[nH]c3ccccc3c2=O)cc1,inactive: 0.248%
17,Cc1nn(-c2ccccc2)c(OC(=O)C(C)C)c1Sc1ccc(Cl)cc1,inactive: -3.41%
18,CC(C)(C)c1ccc(NC(=O)C2CCCN(c3cnccn3)C2)cc1 (configuration not stated),inactive: -25%
19,CCOc1ccc(N2CC(NC(=O)CCc3ccccc3)CC2=O)cc1 (configuration not stated),inactive: 10.5%
20,Cc1ccccc1-c1nc(CN2CCC(C(=O)NCc3ccccc3Cl)CC2)c(C)o1,inactive: -2.37%
